# Source: the supplement of paper PMC11876631
# Positions count from the first letter of the chain named. Names may count otherwise. ± gives the standard deviation of the averaged measurements. Laboratory Escherichia coli strains with one amino-acid change in an essential protein, pooled on minimal glucose agar with carbenicillin or gentamicin at twice the control MIC (plus kanamycin and chloramphenicol for the plasmids), 48 h. Fold change of barcode share against drug-free plates; higher = less susceptible. Active = above 20 in both replicates (the paper's putatively resistant). '<' = one read or none on drug, '>' = one read or none on a drug-free plate. Shares are relative, so most strains fall below 1 when a few take over. Listed are strains with at least 15 reads on both drug-free plates, and hits; most hits rest on fewer reference reads. Replicate rank correlation about 0.5. Edits are read from barcodes.
# B1: pyrD I71A (protein)
# chain: MYYPFVRKALFQLDPERAHEFTFQQLRRITGTPFEALVRQKVPAKPVNCMGLTFKNPLGLAAGLDKDGECADALGAMGFGSIEIGTVTPRPQPGNDKPRLFRLVDAEGLINRMGFNNLGVDNLVENVKKAHYDGVLGINIGKNKDTPVEQGKDDYLICMEKIYAYAGYIAINISSPNTPGLRTLQYGEALDDLLTAIKNKQNDLQAMHHKYVPIAVKIAPDLSEEELIQVADSLVRHNIDGVIATNTTLDRSLVQGMKNCDQTGGLSGRPLQLKSTEIIRRLSLELNGRLPIIGVGGIDSVIAAREKIAAGASLVQIYSGFIFKGPPLIKEIVTHI
# B2: pyrD I71Q (protein)
# chain: B1 chain with A71Q
# B3: pyrD I71W (protein)
# chain: B1 chain with A71W
# B4: pyrD M159A (protein)
# chain: B1 chain with A71I, M159A
# B5: pyrD L227Q (protein)
# chain: B1 chain with A71I, L227Q
# B6: pyrD L227W (protein)
# chain: B1 chain with A71I, L227W
# B7: pyrD I71P (protein)
# chain: B1 chain with A71P
# B8: purK L239P (protein)
# chain: MKQVCVLGNGQLGRMLRQAGEPLGIAVWPVGLDAEPAAVPFQQSVITAEIERWPETALTRELARHPAFVNRDVFPIIADRLTQKQLFDKLHLPTAPWQLLAERSEWPAVFDRLGELAIVKRRTGGYDGRGQWRLRANETEQLPAECYGECIVEQGINFSGEVSLVGARGFDGSTVFYPLTHNLHQDGILRTSVAFPQANAQQQAQAEEMLSAIMQELGYVGVMAMECFVTPQGLLINEPAPRVHNSGHWTQNGASISQFELHLRAITDLPLPQPVVNNPSVMINLIGSDVNYDWLKLPLVHLHWYDKEVRPGRKVGHLNLTDSDTSRLTATLEALIPLLPPEYASGVIWAQSKFG
# B9: purK M282Q (protein)
# chain: B8 chain with P239L, M282Q
# B10: purK M282W (protein)
# chain: B8 chain with P239L, M282W
# B11: purK I283Q (protein)
# chain: B8 chain with P239L, I283Q
# B12: purK L7W (protein)
# chain: B8 chain with L7W, P239L
# B13: purK M282D (protein)
# chain: B8 chain with P239L, M282D
# Target: Escherichia coli (laboratory strain)
# Test: barcode share on antibiotic plates over drug-free plates; higher = less susceptible
# Conditions: antibiotic: carbenicillin; 2× MIC (3.1 µg/mL)
# Protocol: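 A pool of E. coli strains, each edited to carry one amino-acid change in an essential protein, was grown for 48 h on minimal glucose agar with or without antibiotic; strain barcodes were sequenced; mean of two replicates.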
row,Protein,fold change of barcode share
1,B1,0.403 ± 0.053
2,B2,0.562 ± 0.0077
3,B3,0.351 ± 0.05
4,B4,0.467 ± 0.031
5,B5,0.336 ± 0.16
6,B6,0.455 ± 0.021
7,B7,0.259 ± 0.098
8,B8,0.359 ± 0.12
9,B9,0.358 ± 0.1
10,B10,0.329 ± 0.1
11,B11,0.463 ± 0.12
12,B12,0.545 ± 0.25
13,B13,0.427 ± 0.067

# Same assay, conditions: antibiotic: gentamicin; 2× MIC (MIC 0.45 µg/mL)
row,Protein,fold change of barcode share
1,B1,< 0.015
2,B2,0.0167 ± 0.01
3,B3,< 0.00537
4,B4,< 0.00422
5,B5,< 0.015
6,B6,< 0.015
7,B7,< 0.00851
8,B8,< 0.00277
9,B9,< 0.0156
10,B10,< 0.0188
11,B11,< 0.0184
12,B12,< 0.0171
